The supplement of paper PMC11876631
± gives the standard deviation of the averaged measurements. Laboratory Escherichia coli strains with one amino-acid change in an essential protein, pooled on minimal glucose agar with carbenicillin or gentamicin at twice the control MIC (plus kanamycin and chloramphenicol for the plasmids), 48 h. Fold change of barcode share against drug-free plates; higher = less susceptible. Active = above 20 in both replicates (the paper's putatively resistant). '<' = one read or none on drug, '>' = one read or none on a drug-free plate. Shares are relative, so most strains fall below 1 when a few take over. Listed are strains with at least 15 reads on both drug-free plates, and hits; most hits rest on fewer reference reads. Replicate rank correlation about 0.5. Edits are read from barcodes.

B1: gltA; a variant is named by its letters at X, in order (parent)
chain: MADTKAKLTLNGDTAVELDVLKGTLGQDVIDIRTLGSKGVFTFDPGFTSTASCESKITFIDGDEGILLHRGFPIDQLATDSNYLEVCYILLNGEKPTQEQYDEFKTTVTRHTMIHEQXTRLXHAFRRDSHPMAVMCGITGALAAFYHDSLDVNNPRHREIAAFRLLSKMPTMAAMCYKYSIGQPFVYPRNDLSYAGNFLNXMFSTPCEPYEVNPILERAMDRILILHADHEQNASTSTVRTAGSSGANPFACIAAGIASLWGPAHGGANEAALKMLEEISSVKHIPEFVRRAKDKNDSFRLMGFGHRVYKNYDPRATVMRETCHEVLKELGTKDDLLEVAMELENIALNDPYFIEKKLYPNVDFYSGIILKAMGIPSSMFTVXXAMARTVGWXAHWSEMHSDGMKIARPRQLYTGYEKRDFKSDIKR

Variants of: B1
Assay: barcode share on antibiotic plates over drug-free plates; higher = less susceptible
Details: with Escherichia coli (laboratory strain); antibiotic: carbenicillin; 2× MIC (3.1 µg/mL)
Experimental: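 A pool of E. coli strains, each edited to carry one amino-acid change in an essential protein, was grown for 48 h on minimal glucose agar with or without antibiotic; strain barcodes were sequenced; mean of two replicates.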

| Variant | fold change of barcode share |
| --- | --- |
| MADTKAKLTLNGDTAVELDVLKGTLGQDVIDIRTLGSKGVFTFDPGFTSTASCESKITFIDGDEGILLHRGFPIDQLATDSNYLEVCYILLNGEKPTQEQYDEFKTTVTRHTMIHEQQTRLFHAFRRDSHPMAVMCGITGALAAFYHDSLDVNNPRHREIAAFRLLSKMPTMAAMCYKYSIGQPFVYPRNDLSYAGNFLNMMFSTPCEPYEVNPILERAMDRILILHADHEQNASTSTVRTAGSSGANPFACIAAGIASLWGPAHGGANEAALKMLEEISSVKHIPEFVRRAKDKNDSFRLMGFGHRVYKNYDPRATVMRETCHEVLKELGTKDDLLEVAMELENIALNDPYFIEKKLYPNVDFYSGIILKAMGIPSSMFTVIFAMARTVGWIAHWSEMHSDGMKIARPRQLYTGYEKRDFKSDIKR [QFMIFI] | 0.529 ± 0.012 |
| MADTKAKLTLNGDTAVELDVLKGTLGQDVIDIRTLGSKGVFTFDPGFTSTASCESKITFIDGDEGILLHRGFPIDQLATDSNYLEVCYILLNGEKPTQEQYDEFKTTVTRHTMIHEQITRLDHAFRRDSHPMAVMCGITGALAAFYHDSLDVNNPRHREIAAFRLLSKMPTMAAMCYKYSIGQPFVYPRNDLSYAGNFLNMMFSTPCEPYEVNPILERAMDRILILHADHEQNASTSTVRTAGSSGANPFACIAAGIASLWGPAHGGANEAALKMLEEISSVKHIPEFVRRAKDKNDSFRLMGFGHRVYKNYDPRATVMRETCHEVLKELGTKDDLLEVAMELENIALNDPYFIEKKLYPNVDFYSGIILKAMGIPSSMFTVIFAMARTVGWIAHWSEMHSDGMKIARPRQLYTGYEKRDFKSDIKR [IDMIFI] | 1.64 ± 0.12 |
| MADTKAKLTLNGDTAVELDVLKGTLGQDVIDIRTLGSKGVFTFDPGFTSTASCESKITFIDGDEGILLHRGFPIDQLATDSNYLEVCYILLNGEKPTQEQYDEFKTTVTRHTMIHEQITRLFHAFRRDSHPMAVMCGITGALAAFYHDSLDVNNPRHREIAAFRLLSKMPTMAAMCYKYSIGQPFVYPRNDLSYAGNFLNMMFSTPCEPYEVNPILERAMDRILILHADHEQNASTSTVRTAGSSGANPFACIAAGIASLWGPAHGGANEAALKMLEEISSVKHIPEFVRRAKDKNDSFRLMGFGHRVYKNYDPRATVMRETCHEVLKELGTKDDLLEVAMELENIALNDPYFIEKKLYPNVDFYSGIILKAMGIPSSMFTVIDAMARTVGWIAHWSEMHSDGMKIARPRQLYTGYEKRDFKSDIKR [IFMIDI] | 32.8 [active] |
| MADTKAKLTLNGDTAVELDVLKGTLGQDVIDIRTLGSKGVFTFDPGFTSTASCESKITFIDGDEGILLHRGFPIDQLATDSNYLEVCYILLNGEKPTQEQYDEFKTTVTRHTMIHEQWTRLFHAFRRDSHPMAVMCGITGALAAFYHDSLDVNNPRHREIAAFRLLSKMPTMAAMCYKYSIGQPFVYPRNDLSYAGNFLNMMFSTPCEPYEVNPILERAMDRILILHADHEQNASTSTVRTAGSSGANPFACIAAGIASLWGPAHGGANEAALKMLEEISSVKHIPEFVRRAKDKNDSFRLMGFGHRVYKNYDPRATVMRETCHEVLKELGTKDDLLEVAMELENIALNDPYFIEKKLYPNVDFYSGIILKAMGIPSSMFTVIFAMARTVGWIAHWSEMHSDGMKIARPRQLYTGYEKRDFKSDIKR [WFMIFI] | 0.632 ± 0.12 |
| MADTKAKLTLNGDTAVELDVLKGTLGQDVIDIRTLGSKGVFTFDPGFTSTASCESKITFIDGDEGILLHRGFPIDQLATDSNYLEVCYILLNGEKPTQEQYDEFKTTVTRHTMIHEQPTRLFHAFRRDSHPMAVMCGITGALAAFYHDSLDVNNPRHREIAAFRLLSKMPTMAAMCYKYSIGQPFVYPRNDLSYAGNFLNMMFSTPCEPYEVNPILERAMDRILILHADHEQNASTSTVRTAGSSGANPFACIAAGIASLWGPAHGGANEAALKMLEEISSVKHIPEFVRRAKDKNDSFRLMGFGHRVYKNYDPRATVMRETCHEVLKELGTKDDLLEVAMELENIALNDPYFIEKKLYPNVDFYSGIILKAMGIPSSMFTVIFAMARTVGWIAHWSEMHSDGMKIARPRQLYTGYEKRDFKSDIKR [PFMIFI] | 0.502 ± 0.11 |
| MADTKAKLTLNGDTAVELDVLKGTLGQDVIDIRTLGSKGVFTFDPGFTSTASCESKITFIDGDEGILLHRGFPIDQLATDSNYLEVCYILLNGEKPTQEQYDEFKTTVTRHTMIHEQATRLFHAFRRDSHPMAVMCGITGALAAFYHDSLDVNNPRHREIAAFRLLSKMPTMAAMCYKYSIGQPFVYPRNDLSYAGNFLNMMFSTPCEPYEVNPILERAMDRILILHADHEQNASTSTVRTAGSSGANPFACIAAGIASLWGPAHGGANEAALKMLEEISSVKHIPEFVRRAKDKNDSFRLMGFGHRVYKNYDPRATVMRETCHEVLKELGTKDDLLEVAMELENIALNDPYFIEKKLYPNVDFYSGIILKAMGIPSSMFTVIFAMARTVGWIAHWSEMHSDGMKIARPRQLYTGYEKRDFKSDIKR [AFMIFI] | 0.545 ± 0.056 |
| MADTKAKLTLNGDTAVELDVLKGTLGQDVIDIRTLGSKGVFTFDPGFTSTASCESKITFIDGDEGILLHRGFPIDQLATDSNYLEVCYILLNGEKPTQEQYDEFKTTVTRHTMIHEQITRLFHAFRRDSHPMAVMCGITGALAAFYHDSLDVNNPRHREIAAFRLLSKMPTMAAMCYKYSIGQPFVYPRNDLSYAGNFLNMMFSTPCEPYEVNPILERAMDRILILHADHEQNASTSTVRTAGSSGANPFACIAAGIASLWGPAHGGANEAALKMLEEISSVKHIPEFVRRAKDKNDSFRLMGFGHRVYKNYDPRATVMRETCHEVLKELGTKDDLLEVAMELENIALNDPYFIEKKLYPNVDFYSGIILKAMGIPSSMFTVAFAMARTVGWIAHWSEMHSDGMKIARPRQLYTGYEKRDFKSDIKR [IFMAFI] | 0.5 ± 0.025 |
| MADTKAKLTLNGDTAVELDVLKGTLGQDVIDIRTLGSKGVFTFDPGFTSTASCESKITFIDGDEGILLHRGFPIDQLATDSNYLEVCYILLNGEKPTQEQYDEFKTTVTRHTMIHEQDTRLFHAFRRDSHPMAVMCGITGALAAFYHDSLDVNNPRHREIAAFRLLSKMPTMAAMCYKYSIGQPFVYPRNDLSYAGNFLNMMFSTPCEPYEVNPILERAMDRILILHADHEQNASTSTVRTAGSSGANPFACIAAGIASLWGPAHGGANEAALKMLEEISSVKHIPEFVRRAKDKNDSFRLMGFGHRVYKNYDPRATVMRETCHEVLKELGTKDDLLEVAMELENIALNDPYFIEKKLYPNVDFYSGIILKAMGIPSSMFTVIFAMARTVGWIAHWSEMHSDGMKIARPRQLYTGYEKRDFKSDIKR [DFMIFI] | 0.644 ± 0.059 |

Same assay, conditions: with Escherichia coli (laboratory strain); antibiotic: gentamicin; 2× MIC (MIC 0.45 µg/mL)

| Variant | fold change of barcode share |
| --- | --- |
| MADTKAKLTLNGDTAVELDVLKGTLGQDVIDIRTLGSKGVFTFDPGFTSTASCESKITFIDGDEGILLHRGFPIDQLATDSNYLEVCYILLNGEKPTQEQYDEFKTTVTRHTMIHEQQTRLFHAFRRDSHPMAVMCGITGALAAFYHDSLDVNNPRHREIAAFRLLSKMPTMAAMCYKYSIGQPFVYPRNDLSYAGNFLNMMFSTPCEPYEVNPILERAMDRILILHADHEQNASTSTVRTAGSSGANPFACIAAGIASLWGPAHGGANEAALKMLEEISSVKHIPEFVRRAKDKNDSFRLMGFGHRVYKNYDPRATVMRETCHEVLKELGTKDDLLEVAMELENIALNDPYFIEKKLYPNVDFYSGIILKAMGIPSSMFTVIFAMARTVGWIAHWSEMHSDGMKIARPRQLYTGYEKRDFKSDIKR [QFMIFI] | 0.0521 ± 0.03 |
| MADTKAKLTLNGDTAVELDVLKGTLGQDVIDIRTLGSKGVFTFDPGFTSTASCESKITFIDGDEGILLHRGFPIDQLATDSNYLEVCYILLNGEKPTQEQYDEFKTTVTRHTMIHEQWTRLFHAFRRDSHPMAVMCGITGALAAFYHDSLDVNNPRHREIAAFRLLSKMPTMAAMCYKYSIGQPFVYPRNDLSYAGNFLNMMFSTPCEPYEVNPILERAMDRILILHADHEQNASTSTVRTAGSSGANPFACIAAGIASLWGPAHGGANEAALKMLEEISSVKHIPEFVRRAKDKNDSFRLMGFGHRVYKNYDPRATVMRETCHEVLKELGTKDDLLEVAMELENIALNDPYFIEKKLYPNVDFYSGIILKAMGIPSSMFTVIFAMARTVGWIAHWSEMHSDGMKIARPRQLYTGYEKRDFKSDIKR [WFMIFI] | 0.0933 ± 0.12 |
| MADTKAKLTLNGDTAVELDVLKGTLGQDVIDIRTLGSKGVFTFDPGFTSTASCESKITFIDGDEGILLHRGFPIDQLATDSNYLEVCYILLNGEKPTQEQYDEFKTTVTRHTMIHEQPTRLFHAFRRDSHPMAVMCGITGALAAFYHDSLDVNNPRHREIAAFRLLSKMPTMAAMCYKYSIGQPFVYPRNDLSYAGNFLNMMFSTPCEPYEVNPILERAMDRILILHADHEQNASTSTVRTAGSSGANPFACIAAGIASLWGPAHGGANEAALKMLEEISSVKHIPEFVRRAKDKNDSFRLMGFGHRVYKNYDPRATVMRETCHEVLKELGTKDDLLEVAMELENIALNDPYFIEKKLYPNVDFYSGIILKAMGIPSSMFTVIFAMARTVGWIAHWSEMHSDGMKIARPRQLYTGYEKRDFKSDIKR [PFMIFI] | < 0.0102 |
| MADTKAKLTLNGDTAVELDVLKGTLGQDVIDIRTLGSKGVFTFDPGFTSTASCESKITFIDGDEGILLHRGFPIDQLATDSNYLEVCYILLNGEKPTQEQYDEFKTTVTRHTMIHEQATRLFHAFRRDSHPMAVMCGITGALAAFYHDSLDVNNPRHREIAAFRLLSKMPTMAAMCYKYSIGQPFVYPRNDLSYAGNFLNMMFSTPCEPYEVNPILERAMDRILILHADHEQNASTSTVRTAGSSGANPFACIAAGIASLWGPAHGGANEAALKMLEEISSVKHIPEFVRRAKDKNDSFRLMGFGHRVYKNYDPRATVMRETCHEVLKELGTKDDLLEVAMELENIALNDPYFIEKKLYPNVDFYSGIILKAMGIPSSMFTVIFAMARTVGWIAHWSEMHSDGMKIARPRQLYTGYEKRDFKSDIKR [AFMIFI] | 0.0109 ± 0.011 |
| MADTKAKLTLNGDTAVELDVLKGTLGQDVIDIRTLGSKGVFTFDPGFTSTASCESKITFIDGDEGILLHRGFPIDQLATDSNYLEVCYILLNGEKPTQEQYDEFKTTVTRHTMIHEQDTRLFHAFRRDSHPMAVMCGITGALAAFYHDSLDVNNPRHREIAAFRLLSKMPTMAAMCYKYSIGQPFVYPRNDLSYAGNFLNMMFSTPCEPYEVNPILERAMDRILILHADHEQNASTSTVRTAGSSGANPFACIAAGIASLWGPAHGGANEAALKMLEEISSVKHIPEFVRRAKDKNDSFRLMGFGHRVYKNYDPRATVMRETCHEVLKELGTKDDLLEVAMELENIALNDPYFIEKKLYPNVDFYSGIILKAMGIPSSMFTVIFAMARTVGWIAHWSEMHSDGMKIARPRQLYTGYEKRDFKSDIKR [DFMIFI] | 0.0146 ± 0.012 |
